Reference: PubChem BioAssay AID504832 (National Center for Advancing Translational Sciences (NCATS), 2011)
Among all 310,000 compounds or so, about 18,000 (5.8%) were called active. The inconclusive results got no clear call from the source; some entries with a clear call stand among them for comparison. Calls follow the shape of the dose curve; as a rule, active = well fitted inhibition curve with a large enough effect; inconclusive = small, poorly fitted or top-dose-only effect, or another doubt; inactive = no such curve, though single readings can be large or run the other way. Potencies of inconclusive entries are left out as doubtful fits.

Experiment: Primary qHTS for delayed death inhibitors of the malarial parasite plastid, 48 hour incubation
Details: P. falciparum luciferase growth in erythrocytes; series mostly up to 28.7 µM; activity change, negative = inhibition: at the top concentration
Procedure, shortened: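 Luciferase-expressing P. falciparum in infected erythrocytes (2% hematocrit, 0.1% parasitemia final) in RPMI 1640/0.5% Albumax were exposed to compound for 48 hours at 37 C, 5% CO2; growth read as luminescence.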
% is scaled to controls: 0 for no effect and ±100 for the full control effect; potency is read from the fitted curve at half-maximal effect; tags tell the direction and shape of the fitted curve.

| Compound | Potency | activity change, negative = inhibition |
| --- | --- | --- |
| CC(=O)c1cc(-c2ccccc2)n(CC(=O)N2CCN(C3CCCC3)CC2)c1C | inconclusive [inhibitor, partial curve] |  |
| CC(C)=NNc1nc2c(c(=O)[nH]c(=O)n2C)n1CCc1ccccc1 |  | inactive: -11.3% |
| Cc1ccc(Cl)cc1NC(=S)N(CCCN1CCOCC1)Cc1ccco1 | inconclusive [inhibitor, single point] |  |
| Cc1ccc(NC(=O)CSc2nc3[nH]ncc3c(=O)[nH]2)cc1Cl | inconclusive [inhibitor, full curve, poor fit] |  |
| O=C(NC(=S)N1CCN(c2ccccc2)CC1)c1ccccc1 | active: 10.4 µM |  |
| O=C(Nc1ncccn1)c1cc(-c2ccc(F)cc2)nc2ccccc12 | inconclusive [inhibitor, single point] |  |
| O=C(/C=C/c1cn(-c2ccccc2)nc1-c1ccccc1)Nc1ccc(C(=O)O)cc1 |  | inactive: 49.7% |
| N=C1SCC(=O)N1c1ncc(Cc2ccccc2Cl)s1 | inconclusive [inhibitor, partial curve, poor fit] |  |
| Cc1ccc(C)c(CS(=O)(=O)c2cn(CC(=O)N3CCC(C)CC3)c3ccccc23)c1 | inconclusive [inhibitor, single point] |  |
| Cc1cc(C)c(-c2csc(NC(=O)CCCc3nc4ccccc4c(=O)[nH]3)n2)c(C)c1 | active: 0.131 µM |  |
| CCC(CC)NCc1ccc2c(c1)c1ccccc1n2CC | inconclusive [inhibitor, partial curve, poor fit] |  |
| COc1ccc(NS(=O)(=O)c2cccc(C(=O)N/N=C(\C)c3ccncc3)c2)cc1 | inconclusive [inhibitor, partial curve, poor fit] |  |
| CC(=O)c1ccc(N2CCN(c3ccc(S(=O)(=O)NCCN(C)C)cc3[N+](=O)[O-])CC2)cc1 | inconclusive [inhibitor, partial curve] |  |
| Fc1ccc(-c2csc3ncnc(N4CCc5ccccc5C4)c23)cc1 | inconclusive [inhibitor, single point] |  |
| CN(C)CCSc1nnc(-c2ccccc2)o1 |  | inactive: 83.9% |
| COc1ccc(-c2ccc(SCC(=O)Nc3nnc(C)s3)nn2)cc1 |  | inactive: 20.9% |
| COc1ccc(CCNC(=O)C(=O)NCC2CCCN2S(=O)(=O)c2cccs2)cc1 (configuration not stated) | inconclusive [inhibitor, single point] |  |
| Cc1cc(C)c(-c2csc(Cc3nc(-c4cc5ccccc5oc4=O)cs3)n2)cc1C | inconclusive [inhibitor, single point] |  |
| Cc1ccccc1N(CC(=O)N/N=C/c1cc(C)n(-c2ccccc2C)c1C)S(C)(=O)=O | inconclusive [inhibitor, single point] |  |
| CCc1c(C)c2ccc(OCC(=O)NCC3CCC(C(=O)O)CC3)cc2oc1=O (configuration not stated) |  | inactive: 2.83% |
| O=C(NCC1CCCN1S(=O)(=O)c1cccs1)c1ccc(Cl)cc1 (configuration not stated) | inconclusive [inhibitor, partial curve] |  |
| CN1CCN(/C=N/C2=C(C#N)C(c3ccccc3)C3=C(CC(C)(C)CC3=O)O2)CC1 (configuration not stated) |  | inactive: -15.7% |
| Cc1cc(C(=O)c2ccccc2)c(NC(=O)CCl)s1 | inconclusive [inhibitor, single point] |  |

| Compound | Potency | activity change, negative = inhibition |
| --- | --- | --- |
| CCOc1cc(/C=N/Nc2nc(C)cc(=O)[nH]2)ccc1O | inconclusive [inhibitor, single point] |  |
| CC(=O)N1c2ccc(S(=O)(=O)N3CCCC(C(=O)N4CCCC(C)C4)C3)cc2CC1C (configuration not stated) | inconclusive [inhibitor, single point] |  |
| C/C(=N/Nc1cc(-c2ccccc2)nc(-c2ccccc2)n1)c1ccc(O)cc1 | inconclusive [inhibitor, single point] |  |
| Cc1c(C(=O)OCC2CCCO2)[nH]c2c1C(=O)CC(c1ccc(N(C)C)cc1)C2 (configuration not stated) | inconclusive [inhibitor, partial curve] |  |
| CCC(C)(C)C1CCC2(CC1)NC(=O)N(CC(=O)NCCc1c[nH]c3ccccc13)C2=O (configuration not stated) | inconclusive [inhibitor, single point] |  |
| CC(=NCc1ccc2c(c1)OCO2)c1c(O)n(Cc2ccccc2)c(=O)[nH]c1=O | inconclusive [inhibitor, single point] |  |
| CCC(C)(C(=O)NC1CCCCC1)N(Cc1cccs1)C(=O)c1ccc(=O)[nH]c1 (configuration not stated) |  | inactive: 20% |
| COc1ccc(OC)c(C2c3[nH]c4ccccc4c3C[C@H]3C(=O)N(C4CC4)CC(=O)N23)c1 (some centres not stated) | inconclusive [inhibitor, single point] |  |
| O=C1C=CC(=O)N1 |  | inactive: 0.37% |
| COc1cc2c(C(=O)N3CCN(C4CCCCC4)CC3)cn(CC(C)C)c(=O)c2cc1OC | inconclusive [inhibitor, partial curve, poor fit] |  |
| COc1ccccc1N1CCN(C(=O)CSc2nnc3n2C(C)(C)Cc2ccccc2-3)CC1 | inconclusive [inhibitor, partial curve] |  |
| COc1cc2c(cc1OC)C(NC(=O)C(F)(F)F)C/C2=N\O (configuration not stated) | active: 13.1 µM |  |
| CNC(=O)c1ccc(Nc2nnc(-c3ccc(C)c(S(=O)(=O)NCC4CCCO4)c3)c3ccccc23)cc1 (configuration not stated) | active: 5.22 µM |  |
| Cc1ccc(C)c(NS(=O)(=O)c2ccc(OCC(=O)N3CCOCC3)cc2)c1 | inconclusive [inhibitor, partial curve] |  |
| O=C(Nc1nccs1)c1cn(-c2ccccc2)nc1-c1ccncc1 | inconclusive [inhibitor, single point] |  |
| CCOC(=O)c1ccc(N2C(=O)Cc3ccccc3C2=O)cc1 | inconclusive [inhibitor, single point] |  |
| O=Cc1c(Cl)nc2ccccn12 |  | inactive: 8.2% |
| CN1CCc2c(sc(NC(=O)c3ccco3)c2C(N)=O)C1 | inconclusive [inhibitor, single point] |  |
| Cc1ccc(S(=O)(=O)N2CCCC(C(=O)N3CCC4(CC3)OCCO4)C2)cc1 (configuration not stated) | inconclusive [inhibitor, partial curve, poor fit] |  |
| CCOC(=O)c1ccc(NC(=S)NCCCN2CCOCC2)cc1 | inconclusive [inhibitor, partial curve] |  |
| CCCCCCCNC1=CC(=O)CC(c2ccco2)C1 (configuration not stated) | active: 2.33 µM |  |
| CCOC(=O)[C@H]1[C@H]2COc3ccc(Br)cc3[C@@H]2N2C(=O)CN(Cc3ccccc3)C(=O)[C@@]12C | inconclusive [inhibitor, single point] |  |
| CN(CCc1ccccn1)C(=O)c1ccc(OC2CCN(Cc3ccccn3)CC2)cc1 |  | inactive: 0.5% |

| Compound | Potency | activity change, negative = inhibition |
| --- | --- | --- |
| CCS(=O)(=O)c1nc(S(=O)(=O)c2ccc(C)cc2)c(N2CCOCC2)s1 | inconclusive [inhibitor, partial curve] |  |
| COc1cc(/C=C2/C(=O)NN(c3cccc(C)c3)C2=O)cc([N+](=O)[O-])c1O |  | inactive: 1.46% |
| O=C(CC(C(=O)O)c1ccccc1)c1cccs1 (configuration not stated) |  | inactive: 4.32% |
| CCOc1ccccc1CSc1nc2ccccc2[nH]1 | inconclusive [inhibitor, partial curve] |  |
| O=C(CN1C(=O)NC2(CCCC2)C1=O)Nc1cc(Cl)ccc1Oc1ccccc1 | inconclusive [inhibitor, single point] |  |
| COc1ccc(CN2C3CCCC2CC(NC(=O)Nc2ccccc2C)C3)cc1 (configuration not stated) | inconclusive [inhibitor, single point] |  |
| CCCCNC(=O)CSc1nc2cc(OC)c(OC)cc2c(=O)n1Cc1ccc(OC)cc1 | inconclusive [inhibitor, partial curve] |  |
| CN1CCN(c2ncnc3sc(-c4ccccc4)cc23)CC1 | inconclusive [inhibitor, single point] |  |
| CCc1ccc(O)c(N=Cc2cccc(C)c2O)c1 | inconclusive [inhibitor, single point] |  |
| COc1ccc(NS(=O)(=O)c2ccc(C)c(C(=O)NNC(=O)c3ccccc3O)c2)cc1 |  | inactive: 15.3% |
| COc1ccc(C(=O)NC2CCSc3ccccc32)cc1S(=O)(=O)N1CCOCC1 (configuration not stated) | active: 11.7 µM |  |
| COC(=O)CNC(=O)CSc1nnc(C)c(=O)[nH]1 |  | inactive: -7.71% |
| CC1CCN(c2c(NCc3ccc(C(=O)NCCc4ccc(Cl)cc4)cc3)c(=O)c2=O)CC1 | inconclusive [inhibitor, partial curve, poor fit] |  |
| COc1ccccc1C1C(C#N)=C(N)N(N(C)C)C2=C1C(=O)CC(C)(C)C2 (configuration not stated) | inconclusive [inhibitor, full curve] |  |
| COc1ccc(Cl)cc1NC(=O)Cn1nnc(C(=O)NCc2ccc3c(c2)OCO3)c1N |  | inactive: 16.1% |
| O=C(Nc1ccncc1)C1CCN(S(=O)(=O)c2cccc(C(F)(F)F)c2)CC1 | active: 13.1 µM |  |
| CC(C)(C)c1ccc(OCC(=O)N(Cc2cccs2)C2CCS(=O)(=O)C2)cc1 (configuration not stated) | inconclusive [inhibitor, single point] |  |
| CC(C)C(=O)Nc1nnc(CCN(CCc2nnc(NC(=O)C(C)C)s2)[N+](=O)[O-])s1 | inconclusive [inhibitor, full curve, poor fit] |  |
| COc1ccc(N2CCN(C(=O)COC(=O)c3oc4ccc(OC)cc4c3C)CC2)cc1 | inconclusive [inhibitor, single point] |  |
| C1=Nc2c(Nc3ccccc3)ncnc2Oc2ccccc21 |  | inactive: 29.2% |
| COc1ccc(C(C(=O)NC2CCCC2)N(C(=O)c2ccoc2C)c2ccc(C)c(C)c2)cc1 (configuration not stated) | inconclusive [inhibitor, single point] |  |
